Data published in the supplement of paper PMC4604168 (melanoma cell lines).
The list shows a part of the results. Repeats are few or missing, and single values can be far off.

tested on: 501Mel; assay: cell count relative to DMSO control; melanoma cells; higher = more viable cells; details: library dose: low library concentration; 72 h
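Also: cell number obtained by counting DAPI-stained nuclei in high-throughput microscope images with image analysis software, screen run in 1,536-well plates.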

Row | Structure (SMILES) | cell count [%]
1 | CC1(C)CCC(c2ccc(Cl)cc2)=C(CN2CCN(c3ccc(C(=O)NS(=O)(=O)c4ccc(N[C@H](CCN5CCOCC5)CSc5ccccc5)c(S(=O)(=O)C(F)(F)F)c4)cc3)CC2)C1 + O=C(O)c1ccc2c(c1)nc(Nc1cccc(Cl)c1)c1ccncc12 [CX4945] (first compound 0.4 µM, partner dose 0.4 µM) | 94.5
2 | O=C(/C=C/c1cccnc1)NCCCCC1CCN(C(=O)c2ccccc2)CC1 + Cn1c(Nc2ccc(C(F)(F)F)cc2)nc2cc(Oc3ccnc(-c4ncc(C(F)(F)F)[nH]4)c3)ccc21 [CHIR265] (first compound 0.01 µM, partner dose 0.08 µM) | 154
3 | CC1(C)CCC(c2ccc(Cl)cc2)=C(CN2CCN(c3ccc(C(=O)NS(=O)(=O)c4ccc(N[C@H](CCN5CCOCC5)CSc5ccccc5)c(S(=O)(=O)C(F)(F)F)c4)cc3)CC2)C1 + CO[C@@H]1[C@H](N(C)C(=O)c2ccccc2)C[C@H]2O[C@]1(C)n1c3ccccc3c3c4c(c5c6ccccc6n2c5c31)C(=O)NC4 [Midostaurin] (first compound 0.4 µM, partner dose 0.08 µM) | 84.1
4 | O=C(/C=C/c1cccnc1)NCCCCC1CCN(C(=O)c2ccccc2)CC1 + C=C(c1ccc(C(=O)O)cc1)c1cc2c(cc1C)C(C)(C)CCC2(C)C [Bexarotene] (first compound 0.01 µM, partner dose 2 µM) | 71.6
5 | Cc1ccc(Nc2nccc(N(C)c3ccc4c(C)n(C)nc4c3)n2)cc1S(N)(=O)=O [Pazopanib] + CC(C)C[C@H](NC(=O)[C@H](Cc1ccccc1)NC(=O)c1cnccn1)B(O)O [Bortezomib] (first compound 0.4 µM, partner dose 0.001 µM) | 64.9
6 | O=C(/C=C/c1cccnc1)NCCCCC1CCN(C(=O)c2ccccc2)CC1 + CCCCCCCCc1ccc(CCC(N)(CO)CO)cc1 [fingolimod] (first compound 0.01 µM, partner dose 2 µM) | 51.8
7 | CC1(C)CCC(c2ccc(Cl)cc2)=C(CN2CCN(c3ccc(C(=O)NS(=O)(=O)c4ccc(N[C@H](CCN5CCOCC5)CSc5ccccc5)c(S(=O)(=O)C(F)(F)F)c4)cc3)CC2)C1 + CCN(CC)CCNC(=O)c1c(C)[nH]c(/C=C2\C(=O)Nc3ccc(F)cc32)c1C [sunitinib] (first compound 0.4 µM, partner dose 0.4 µM) | 72.3
8 | CC1(C)CCC(c2ccc(Cl)cc2)=C(CN2CCN(c3ccc(C(=O)NS(=O)(=O)c4ccc(N[C@H](CCN5CCOCC5)CSc5ccccc5)c(S(=O)(=O)C(F)(F)F)c4)cc3)CC2)C1 + C[C@@H](N)c1ccc(C(=O)Nc2ccnc3[nH]ccc23)cc1 [RKI983] (first compound 0.4 µM, partner dose 0.4 µM) | 123
9 | CC1(C)CCC(c2ccc(Cl)cc2)=C(CN2CCN(c3ccc(C(=O)NS(=O)(=O)c4ccc(N[C@H](CCN5CCOCC5)CSc5ccccc5)c(S(=O)(=O)C(F)(F)F)c4)cc3)CC2)C1 + O=C(O)c1ccc(-c2c[nH]c3ncc(-c4ccccc4)cc23)cc1C1CCCC1 [GSK650394] (first compound 0.4 µM, partner dose 0.16 µM) | 86.5
10 | O=C(/C=C/c1cccnc1)NCCCCC1CCN(C(=O)c2ccccc2)CC1 + C[C@@H](Oc1cc(-c2cnn(C3CCNCC3)c2)cnc1N)c1c(Cl)ccc(F)c1Cl [Crizotinib] (first compound 0.01 µM, partner dose 0.2 µM) | 90.3
11 | O=C(/C=C/c1cccnc1)NCCCCC1CCN(C(=O)c2ccccc2)CC1 + Cn1cnc2c(F)c(Nc3ccc(Br)cc3Cl)c(C(=O)NOCCO)cc21 [selumetinib] (first compound 0.01 µM, partner dose 0.015 µM) | 21.5
12 | CC1(C)CCC(c2ccc(Cl)cc2)=C(CN2CCN(c3ccc(C(=O)NS(=O)(=O)c4ccc(N[C@H](CCN5CCOCC5)CSc5ccccc5)c(S(=O)(=O)C(F)(F)F)c4)cc3)CC2)C1 + CN(C)S(=O)(=O)c1ccc2c(c1)/C(=C/c1cc3c([nH]1)CCCC3)C(=O)N2 [SU6656] (first compound 0.4 µM, partner dose 0.4 µM) | 104
13 | CC1(C)CCC(c2ccc(Cl)cc2)=C(CN2CCN(c3ccc(C(=O)NS(=O)(=O)c4ccc(N[C@H](CCN5CCOCC5)CSc5ccccc5)c(S(=O)(=O)C(F)(F)F)c4)cc3)CC2)C1 + O=C(CCCCCCC(=O)Nc1ccccc1)NO [vorinostat] (first compound 0.4 µM, partner dose 0.08 µM) | 97.7
